Structures can show the parent of a compound that is named as a salt. The list shows a part of the results.

The experiment deals with Schistosoma mansoni schistosomula. As to the kind of experiment: phenotypic hit in primary schistosomula screen (any phenotype vs DMSO control) (binary (1 = hit, 0 = no phenotype)); higher = active (phenotype induced). The conditions noted are these: 1 µM; time (d): 7.
Regarding `CC(=O)N1CCCC1C(=O)O` (configuration not stated) [n-acetylproline], the phenotypic hit was inactive: 0.

Turning to `CCOC(=O)C1=C(COCCN)NC(C)=C(C(=O)OC)C1c1ccccc1Cl` (configuration not stated) [amlodipine besylate], the phenotypic hit was inactive: 0.

Turning to `Oc1c(Cl)cc(Cl)c(Cl)c1Cc1c(O)c(Cl)cc(Cl)c1Cl` [hexachlorophene], the phenotypic hit is active: 1.

Regarding `Cc1c(N(C)C)c(=O)n(-c2ccccc2)n1C` [aminophenazone], the phenotypic hit is inactive: 0.

Take `CCOc1ccc2ccccc2c1C(=O)N[C@@H]1C(=O)N2[C@@H]1SC(C)(C)[C@@H]2C(=O)O` [nafcillin sodium]: the phenotypic hit was inactive: 0.

For `CCN(CC)CCNC(=O)c1cc(Cl)c(N)cc1OC` [Metoclopramide hydrochloride], the phenotypic hit is inactive: 0.

As to `CC1OC(OC2C(O)COC(OC3C(C)OC(OC4C(OC(=O)C56CCC(C)(C)CC5C5=CCC7C8(C)CCC(OC9OC(CO)C(O)C(O)C9O)C(C)(C)C8CCC7(C)C5(C)CC6O)OCC(O)C4O)C(O)C3O)C2O)C(O)C(O)C1O` (configuration not stated) [chrysanthellin a], the phenotypic hit is inactive: 0.

Turning to `CC1=NN(c2ccccc2)C(=O)C1` [3-methyl-1-phenyl-2-pyrazolin-5-one (mci-186)], the phenotypic hit is inactive: 0.

`Cn1cnc2c1c(=O)[nH]c(=O)n2C` [Theobromine]: the phenotypic hit is inactive: 0.

Regarding `CCC[C@@H]1C[C@@H](C(=O)N[C@@H]([C@H]2O[C@H](SC)[C@H](O)[C@@H](O)[C@H]2O)[C@H](C)Cl)N(C)C1` [clindamycin hydrochloride], the phenotypic hit was inactive: 0.

For `O=C(O)CCNC(=O)c1ccccc1` [betamipron], the phenotypic hit is inactive: 0.

As for `O=C(N[C@H](CO)[C@H](O)c1ccc([N+](=O)[O-])cc1)C(Cl)Cl` [chloramphenicol], the phenotypic hit was inactive: 0.

For the compound `COc1ccc(-c2coc3cc(OC)ccc3c2=O)cc1` [7,4'-dimethoxyisoflavone], the phenotypic hit is active: 1.

Take `C=C(C)C1(O)OC(=O)C=C1OC` (configuration not stated) [penicillic acid]: the phenotypic hit is inactive: 0.

For the compound `C[n+]1c2cc(N)ccc2cc2ccc(N)cc21` [acriflavinium hydrochloride], the phenotypic hit was active: 1.

In the case of `NC/C=C/C(=O)O` [t-4-aminocrotonic acid (taca)], the phenotypic hit was inactive: 0.

Turning to `CCCc1occc(=O)c1/C=C/O` [2-propyl-3-hydroxyethylenepyran-4-one], the phenotypic hit was inactive: 0.

For the compound `CC(C)[N+](C)(CCOC(=O)C1c2ccccc2Oc2ccccc21)C(C)C` [propantheline bromide], the phenotypic hit is inactive: 0.

With `CN(C)CCC=C1c2ccccc2COc2ccccc21` [doxepin hydrochloride], the phenotypic hit was active: 1.

On to `OCc1cccnc1` [nicotinyl tartrate], for which the phenotypic hit is inactive: 0.

With `CC1=CC(=O)C(C(C)C)=CC1=O` [thymoquinone], the phenotypic hit is inactive: 0.

As for `CN[C@@H]1[C@H](O)[C@H](NC)[C@H]2O[C@@]3(O)C(=O)C[C@@H](C)O[C@H]3O[C@@H]2[C@H]1O` [spectinomycin hydrochloride], the phenotypic hit is inactive: 0.

With `CCC[C@H]1CC2=C(C[C@@H](CC)CC3=C1C(=O)OC3=O)C(=O)OC2=O` [byssochlamic acid], the phenotypic hit is inactive: 0.

On to `NS(=O)(=O)c1cc2c(cc1Cl)NC(C(Cl)Cl)NS2(=O)=O` (configuration not stated) [trichlormethiazide], for which the phenotypic hit is inactive: 0.

Turning to `CN[C@H](CC(=O)O)C(=O)O` [N-Methyl-D-aspartic acid], the phenotypic hit was inactive: 0.

In the case of `Cc1onc(-c2ccccc2Cl)c1C(=O)N[C@@H]1C(=O)N2[C@@H]1SC(C)(C)[C@@H]2C(=O)O` [cloxacillin sodium], the phenotypic hit is inactive: 0.

As for `C=C[C@@](C)(O)CCC1C(=C)CCC2[C@@](C)(CO)CCC[C@]12C` (stereo partly drawn) [epi (13)torulosol], the phenotypic hit was inactive: 0.

As for `C[C@@H]1NC(=O)[C@@H](N)CNC(=O)[C@H](C2CCNC(=N)N2)NC(=O)/C(=C/NC(N)=O)NC(=O)[C@H](CNC(=O)CC(N)CCCN)NC1=O.N=C1NCC[C@H]([C@@H]2NC(=O)/C(=C/NC(N)=O)NC(=O)[C@H](CNC(=O)C[C@@H](N)CCCN)NC(=O)[C@H](CO)NC(=O)[C@@H](N)CNC2=O)N1` [capreomycin sulfate], the phenotypic hit was inactive: 0.

As to `N=c1[nH]c(=O)c2[nH]c(=O)c(=O)[nH]c2[nH]1` [leucopterin], the phenotypic hit was inactive: 0.

In the case of `CC(=O)Oc1cc(OC(C)=O)c2c(c1)O[C@H](c1ccc(OC(C)=O)c(OC(C)=O)c1)[C@@H](OC(C)=O)C2` [catechin pentaacetate], the phenotypic hit is inactive: 0.

Take `NC(=O)NCC(N)C(=O)O` (configuration not stated) [albizziine]: the phenotypic hit is inactive: 0.

For `CC(=O)O[C@@H]1CC2C(C)(C)C(=O)[C@@H]3O[C@@H]3[C@]2(C)C2CC[C@]3(C)C(=CC(=O)O[C@H]3c3ccoc3)[C@@]21C` (stereo partly drawn) [1 (2)alpha-epoxydeoxydihydrogedunin], the phenotypic hit is inactive: 0.

On to `CC(C)CCC[C@@H](C)[C@H]1CC[C@H]2[C@@H]3CC(=O)[C@H]4C[C@@H](O)CC[C@]4(C)[C@H]3CC[C@]12C` [5alpha-cholestan-3beta-ol-6-one], for which the phenotypic hit was inactive: 0.

As to `C[C@H]1c2cccc(O)c2C(=O)C2=C(O)[C@]3(O)C(=O)C(C(N)=O)=C(O)[C@@H](N(C)C)[C@@H]3[C@@H](O)[C@@H]21` [doxycycline hydrochloride], the phenotypic hit was inactive: 0.

For the compound `C=CC(C1=CC(=O)C(OC)=CC1=O)c1ccccc1` (configuration not stated) [4-methoxydalbergione], the phenotypic hit is inactive: 0.

In the case of `O=C1c2ccc(O)cc2OC(c2cc(O)c(O)c(O)c2)C1O` (stereo in doubt) [dihydrorobinetin], the phenotypic hit was inactive: 0.

As for `C[C@](N)(Cc1ccc(O)c(O)c1)C(=O)O` [L-alpha-Methyl DOPA], the phenotypic hit is inactive: 0.

For `CC[C@H]1C(=O)OC[C@@H]1Cc1cncn1C` [isopilocarpine nitrate], the phenotypic hit is inactive: 0.

Regarding `COc1c(CC(=O)c2cc3c(cc2O)OC(C)(C)C(O)C3)ccc2c1C=CC(C)(C)O2` (configuration not stated) [dihydromunduletone], the phenotypic hit was inactive: 0.

As to `O=C(O)c1cn(C2CC2)c2cc(N3CCNCC3)c(F)cc2c1=O` [ciprofloxacin], the phenotypic hit was inactive: 0.

Turning to `Cn1c(=O)[nH]c2ncn(C)c2c1=O` [1,7-Dimethylxanthine], the phenotypic hit was inactive: 0.

In the case of `Cc1cc(C(C)(C)C)c(O)c(C(C)(C)C)c1` [2,6-di-t-butyl-4-methylphenol], the phenotypic hit was inactive: 0.

The record behind these values is the supplement of paper PMC2702839.
